Measured values: the supplement of paper PMC12889115
The other results are listed elsewhere or left out. Cut-off read from the data, not from the text of the source: active = 25% or less and inactive = the rest. Most values come without repeats; read them as rough.

System: Salmonella enterica serovar Typhimurium SL1344
Experiment: intramacrophage bacterial GFP load (SAFIRE), percent of DMSO control (% of DMSO); higher = more intracellular bacteria (less inhibition)
Conditions: 25 µM; system: infected RAW 264.7 macrophages
Procedure: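 Secondary screen of the 553 primary hits at 25 µM. (i) S. Typhimurium SL1344 grown in Mueller-Hinton broth with 0.5 µg/mL polymyxin B, OD600 read after 18 h. (ii) SAFIRE assay: RAW 264.7 macrophages infected with S. Typhimurium sifB::gfp (MOI 30); compound added 2 h post-infection; cells fixed at 18 h; GFP-positive pixel fraction per macrophage imaged by confocal microscopy and expressed as % of DMSO control.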
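Note: compounds tested were the hits of an earlier 50 µM broth growth screen of a drug-like diversity library run with polymyxin B.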

Intramacrophage bacterial GFP load, inactive:
O=C(Nc1ccc(-c2ccco2)cc1)C1CCCN(Cc2cccc3nonc23)C1 (stereo not drawn) 118
CN(C)C(=O)CC(c1ccccc1)c1cccc(Cl)c1 (stereo not drawn) 76.2
COc1ccccc1CCC(=O)N1CCc2onc(-c3ccc(Cl)cc3)c2C1 150
